{"source": "paper PMC6919601", "about": "“Identification of Plasmodium dipeptidyl aminopeptidase allosteric inhibitors by high throughput screening” (PLoS ONE, 2019)", "note": "The campaign covered roughly 110,000 compounds. About 230 (0.21%) showed an effect of 50% or more. The list shows a part of the results.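 Further: 30 min substrate incubation versus DMSO and 10 µM JCP410 controls.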", "data": [{"target": "DPAP1 (Plasmodium falciparum, UniProt Q8IIJ9)", "sequence (Q8IIJ9 whole entry, looked up)": "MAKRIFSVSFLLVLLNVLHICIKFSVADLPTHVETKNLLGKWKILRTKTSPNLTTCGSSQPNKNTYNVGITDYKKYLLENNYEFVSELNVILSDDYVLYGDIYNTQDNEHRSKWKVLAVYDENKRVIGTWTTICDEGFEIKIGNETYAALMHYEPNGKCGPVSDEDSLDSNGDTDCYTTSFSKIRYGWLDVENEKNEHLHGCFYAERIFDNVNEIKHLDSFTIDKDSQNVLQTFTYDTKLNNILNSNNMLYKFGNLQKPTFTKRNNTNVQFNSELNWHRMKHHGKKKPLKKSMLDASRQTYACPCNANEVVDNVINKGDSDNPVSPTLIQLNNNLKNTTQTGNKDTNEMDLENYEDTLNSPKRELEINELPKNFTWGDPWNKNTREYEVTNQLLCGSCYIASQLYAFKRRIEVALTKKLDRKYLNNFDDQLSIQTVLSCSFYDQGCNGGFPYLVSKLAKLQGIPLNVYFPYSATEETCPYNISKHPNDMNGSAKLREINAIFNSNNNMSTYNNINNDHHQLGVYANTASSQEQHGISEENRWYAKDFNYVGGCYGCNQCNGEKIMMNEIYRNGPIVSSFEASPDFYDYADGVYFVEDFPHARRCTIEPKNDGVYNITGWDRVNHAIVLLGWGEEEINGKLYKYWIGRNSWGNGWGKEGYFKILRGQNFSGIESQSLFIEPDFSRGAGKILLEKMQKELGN", "test": "primary screen, percent inhibition; read by cleavage of a fluorogenic dipeptide substrate; higher = more effect of the substance", "set-up": "species or system P. falciparum D10 trophozoite lysates; single well", "units": {"% Inhibition @ 10 uM": "%"}, "values": [{"smiles": "CC1(C)CC(=O)C(c2c[nH]c3ccccc23)C(=O)C1", "% Inhibition @ 10 uM": 6.8}, {"smiles": "CN1C(=O)N(C)C2CC1N(C)C(=O)N2C", "% Inhibition @ 10 uM": 2.26}, {"smiles": "Cc1cccnc1NC(=O)Cn1nc(Cc2ccncc2)c2ccccc2c1=O", "% Inhibition @ 10 uM": 7.96}, {"smiles": "COc1ccc(-c2nc(-c3cc4cc(C)ccc4nc3OC)no2)cc1OC", "% Inhibition @ 10 uM": 2.62}, {"smiles": "CN(C)/C=C1\\C(=O)N/C(=C/c2ccc(Br)cc2)C1=O", "% Inhibition @ 10 uM": 34.8}, {"smiles": "COc1ccc(CCNc2nc(Cl)nc(NC(C)(C)CO)n2)cc1OC", "% Inhibition @ 10 uM": -2.14}, {"smiles": "CCOC(=O)c1cnc(NCc2ccccc2)nc1C", "% Inhibition @ 10 uM": -3.75}, {"smiles": "COc1ccccc1C1=NOC(C(=O)N2CCCCCC2)C1", "note": "(stereo not drawn)", "% Inhibition @ 10 uM": 1.62}, {"smiles": "Cc1ccc(/C=C2/NC(=O)NC2=O)cc1", "% Inhibition @ 10 uM": -0.178}, {"smiles": "CC1C(c2ccccc2)=[N+]([O-])C(C)(C)N1O", "note": "(stereo not drawn)", "% Inhibition @ 10 uM": -3.41}, {"smiles": "Cc1ccccc1OCC(=O)N(Cc1nc(-c2ccc(Cl)cc2)no1)C(C)C", "% Inhibition @ 10 uM": 3.6}, {"smiles": "O=C(O)CSc1nc2ccc(Br)cc2o1", "% Inhibition @ 10 uM": 2.35}, {"smiles": "COC(=O)c1ccc(-c2ccc(C(=O)OC)cc2)cc1", "% Inhibition @ 10 uM": 2.79}, {"smiles": "COc1ccc(OC)c(C(=O)c2c(N)c(-c3nc(-c4ccc5c(c4)OCO5)cs3)c3ccccn23)c1", "% Inhibition @ 10 uM": 2.62}, {"smiles": "Cc1cc2nc3c(nc2cc1C)C1(C(=O)N(C)C)CCC3(C)C1(C)C", "note": "(stereo not drawn)", "% Inhibition @ 10 uM": -1.55}, {"smiles": "Cc1cc2ncn(Cc3ccccc3C)c2cc1C", "% Inhibition @ 10 uM": -0.551}, {"smiles": "O=[N+]([O-])c1ccc(S(=O)(=O)c2nc3ccccc3s2)c(Cl)c1", "% Inhibition @ 10 uM": 1.9}, {"smiles": "O=C(Nc1ccccc1F)c1cccc(Cl)c1", "% Inhibition @ 10 uM": -5.2}, {"smiles": "COc1ccc(-c2onc(C)c2C)cc1S(=O)(=O)N1CCOCC1", "% Inhibition @ 10 uM": 4.85}, {"smiles": "CCOc1ccc(NS(=O)(=O)c2ccc(NC(=O)c3cccc(C)c3)cc2)cc1", "% Inhibition @ 10 uM": 5.09}, {"smiles": "CC(C)=CCC/C(C)=C/CN(C)CCc1ccccn1", "% Inhibition @ 10 uM": 0.0792}, {"smiles": "CC1CCc2c(sc3ncn(CC(N)=O)c(=O)c23)C1", "note": "(stereo not drawn)", "% Inhibition @ 10 uM": 0.674}, {"smiles": "Cc1cccc(NC(=O)COc2ccccc2C)n1", "% Inhibition @ 10 uM": -4.12}, {"smiles": "CC(=O)N1N=C(c2cc(Cl)ccc2Cl)CC1c1ccccc1", "note": "(stereo not drawn)", "% Inhibition @ 10 uM": 5.07}, {"smiles": "CCc1cccc2c(C(=O)C(F)(F)F)cn(CC(=O)NCc3ccc4c(c3)OCO4)c12", "% Inhibition @ 10 uM": -6.7}, {"smiles": "CCOCCCNC(=O)c1cc2c(O)nc3ccc(C)cc3c2s1", "% Inhibition @ 10 uM": 5.92}, {"smiles": "CCOc1ccccc1C(=O)NCc1ccc(F)cc1", "% Inhibition @ 10 uM": -0.132}, {"smiles": "Cc1c(CCC#N)c2ccccc2n1C", "% Inhibition @ 10 uM": 0.00178}, {"smiles": "CC1CCCCN1C(=O)c1cc([N+](=O)[O-])cc([N+](=O)[O-])c1", "note": "(stereo not drawn)", "% Inhibition @ 10 uM": 0.526}, {"smiles": "CCN1C(=O)N/C(=C/c2cn(Cc3ccccc3)c3ccccc23)C1=O", "% Inhibition @ 10 uM": 3.63}, {"smiles": "CN1CCCN(Cc2ccccc2F)CC1", "% Inhibition @ 10 uM": -1.92}, {"smiles": "O=C1CCNc2cc3ccccc3cc21", "% Inhibition @ 10 uM": 1.7}, {"smiles": "CC(C)=C(NC(=O)c1ccccc1)C(=O)N1CCCCC1", "% Inhibition @ 10 uM": 1.84}, {"smiles": "C=C(C)[C@@H]1CC=C(CN2CCC(C(=O)OCC)CC2)CC1", "% Inhibition @ 10 uM": -0.446}, {"smiles": "Cn1cccc1CNCCc1ccc(F)cc1", "% Inhibition @ 10 uM": -5.4}, {"smiles": "COc1ccc(S(=O)(=O)N2CCC(CN)CC2)cc1OC", "% Inhibition @ 10 uM": 3.69}, {"smiles": "CCOc1nc2c([nH]1)OC(N)=C(C#N)C2c1ccccc1C(C)(C)C", "note": "(stereo not drawn)", "% Inhibition @ 10 uM": -0.988}, {"smiles": "CNCC(=O)Nc1c2c(nc3c1CCC3)CCCC2", "% Inhibition @ 10 uM": -1.44}, {"smiles": "CC(C)CS(=O)(=O)C1=NN2C(=N)/C(=C\\c3ccc(OCC(=O)O)cc3)C(=O)N=C2S1", "% Inhibition @ 10 uM": 0.208}, {"smiles": "COc1cccc(OC)c1-c1ccc(C(=O)N[C@@H](CC(C)C)C(=O)NCC#N)cn1", "% Inhibition @ 10 uM": -3.48}, {"smiles": "CCCn1c(COc2ccc(C)cc2)nc2ccccc21", "% Inhibition @ 10 uM": -3.63}, {"smiles": "CC(=O)Nc1ccc(NC(=O)C2CCN(C(=O)c3ccc(Cl)cc3Cl)CC2)cc1", "% Inhibition @ 10 uM": 0.231}, {"smiles": "O=C(CCCNS(=O)(=O)c1cccc2nsnc12)N1CCCCC1", "% Inhibition @ 10 uM": -3.23}, {"smiles": "CC(C)(O)C#Cc1ccc(C(=O)NCc2ccccc2)cc1", "% Inhibition @ 10 uM": -1.32}, {"smiles": "Brc1ccc(OCc2cn3ccccc3n2)cc1", "% Inhibition @ 10 uM": 0.00626}, {"smiles": "O=C(c1ccc(S(=O)(=O)N2CCCCC2)cc1)N1CCN(Cc2ccc3c(c2)OCO3)CC1", "% Inhibition @ 10 uM": -9.4}, {"smiles": "CN(c1ncnc2onc(-c3ccc(Cl)cc3)c12)C1CCCCC1", "% Inhibition @ 10 uM": -7.65}, {"smiles": "Cc1ccc(CN(Cc2ccco2)C(=O)COc2ccccc2Cl)o1", "% Inhibition @ 10 uM": 2.29}, {"smiles": "Cc1nn(-c2ccccc2)c2c1C(c1ccco1)C(C#N)=C(N)O2", "note": "(stereo not drawn)", "% Inhibition @ 10 uM": -4.33}, {"smiles": "CCN1C(=O)S/C(=C/c2ccc(-c3cccc(C(=O)O)c3C)o2)C1=O", "% Inhibition @ 10 uM": 2.84}, {"smiles": "Cc1ccccc1-n1nnc(-c2nsc(NC(=O)c3ccccc3)n2)c1C", "% Inhibition @ 10 uM": -5.09}, {"smiles": "Cc1ccc(NC(=O)CCS(=O)(=O)c2ccc(Br)cc2)cc1", "% Inhibition @ 10 uM": 1.89}, {"smiles": "COC(=O)c1ccccc1NC(=O)c1ccc(-c2ccccc2)cc1", "% Inhibition @ 10 uM": 1.7}, {"smiles": "Clc1cccc(-c2nnc(CN3CCc4ccccc4C3)o2)c1", "% Inhibition @ 10 uM": -4.47}, {"smiles": "NC(=O)C1CCN(Cc2ccccc2)CC1", "% Inhibition @ 10 uM": -3.57}, {"smiles": "CSc1ccc(CCNC(=O)c2ccc(CN3CC(=O)N4CCCCC4C3=O)cc2)cc1", "note": "(stereo not drawn)", "% Inhibition @ 10 uM": 12.4}, {"smiles": "CC1(C)C(C=C(Cl)Cl)C1C(=O)NCc1ccco1", "note": "(stereo not drawn)", "% Inhibition @ 10 uM": -1.96}, {"smiles": "Cc1ccc(/C=C(/NC(=O)c2ccccc2)C(=O)NCCc2c[nH]c3ccccc23)o1", "% Inhibition @ 10 uM": -2.88}, {"smiles": "O=C(c1ccc(Br)o1)N1CCN(c2ccc([N+](=O)[O-])cc2)CC1", "% Inhibition @ 10 uM": 5.12}, {"smiles": "CCOCCc1nnc(NC(=O)C(=O)c2cc(C)n(-c3ccc(C)cc3)c2C)s1", "% Inhibition @ 10 uM": -2.84}, {"smiles": "CCOC(=O)c1sc2nc(C)cc(C)c2c1NC(=O)c1ccco1", "% Inhibition @ 10 uM": 4.19}, {"smiles": "Cc1ccn2c(NC(=O)c3ccc(F)cc3)c(-c3cccs3)nc2c1", "% Inhibition @ 10 uM": 4.77}, {"smiles": "CCOC(=O)C1=C(N)Oc2c(c(=O)oc3ccccc23)C1c1cccc([N+](=O)[O-])c1", "note": "(stereo not drawn)", "% Inhibition @ 10 uM": 2.33}, {"smiles": "COc1cc(OC)cc(C(=O)Nc2sc3c(c2C#N)CCCC3)c1", "% Inhibition @ 10 uM": -4.75}, {"smiles": "CCN1CCC(C#N)(NC(=O)[C@H](C[C@H](C)c2ccccc2)NC(=O)c2ccc(-c3ccccc3Cl)cc2)CC1", "% Inhibition @ 10 uM": -5.2}, {"smiles": "CCCOc1ccc(-c2csc3ncn(CC(=O)Nc4ccc(C)cc4)c(=O)c23)cc1", "% Inhibition @ 10 uM": 5.39}]}]}
